# Assay results taken from the supplement of paper PMC3334620.
# Over roughly 33,000 sequences, “E-score (-0.5 to 0.5)” has its median near -0.053; the highest 2% begin near 0.37. The list shows a part of the results.
# Molecular target: Hap1 (UniProt P0CE41)
# Assay: PBM E-score (8-mer binding enrichment) (E-score (-0.5 to 0.5)); higher = stronger / more preferred TF binding; most listed sequences are background and not binding sites
# Details: protein concentration: 200 nM; construct: GST-DNA-binding domain
# Procedure, shortened: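 Universal all-10-mer Agilent arrays, fresh or stripped once, were converted to double-stranded form by primer extension. GST-tagged yeast transcription factors from PURExpress in vitro transcription/translation, full-length or DNA-binding domain only, were applied at about 100-200 nM and detected with fluorescent anti-GST. After masliner normalisation, the Universal PBM Analysis Suite scored each ungapped eight-base word together with its reverse complement by E-score.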
# UniProt P0CE41, sequence (P0CE41 whole entry): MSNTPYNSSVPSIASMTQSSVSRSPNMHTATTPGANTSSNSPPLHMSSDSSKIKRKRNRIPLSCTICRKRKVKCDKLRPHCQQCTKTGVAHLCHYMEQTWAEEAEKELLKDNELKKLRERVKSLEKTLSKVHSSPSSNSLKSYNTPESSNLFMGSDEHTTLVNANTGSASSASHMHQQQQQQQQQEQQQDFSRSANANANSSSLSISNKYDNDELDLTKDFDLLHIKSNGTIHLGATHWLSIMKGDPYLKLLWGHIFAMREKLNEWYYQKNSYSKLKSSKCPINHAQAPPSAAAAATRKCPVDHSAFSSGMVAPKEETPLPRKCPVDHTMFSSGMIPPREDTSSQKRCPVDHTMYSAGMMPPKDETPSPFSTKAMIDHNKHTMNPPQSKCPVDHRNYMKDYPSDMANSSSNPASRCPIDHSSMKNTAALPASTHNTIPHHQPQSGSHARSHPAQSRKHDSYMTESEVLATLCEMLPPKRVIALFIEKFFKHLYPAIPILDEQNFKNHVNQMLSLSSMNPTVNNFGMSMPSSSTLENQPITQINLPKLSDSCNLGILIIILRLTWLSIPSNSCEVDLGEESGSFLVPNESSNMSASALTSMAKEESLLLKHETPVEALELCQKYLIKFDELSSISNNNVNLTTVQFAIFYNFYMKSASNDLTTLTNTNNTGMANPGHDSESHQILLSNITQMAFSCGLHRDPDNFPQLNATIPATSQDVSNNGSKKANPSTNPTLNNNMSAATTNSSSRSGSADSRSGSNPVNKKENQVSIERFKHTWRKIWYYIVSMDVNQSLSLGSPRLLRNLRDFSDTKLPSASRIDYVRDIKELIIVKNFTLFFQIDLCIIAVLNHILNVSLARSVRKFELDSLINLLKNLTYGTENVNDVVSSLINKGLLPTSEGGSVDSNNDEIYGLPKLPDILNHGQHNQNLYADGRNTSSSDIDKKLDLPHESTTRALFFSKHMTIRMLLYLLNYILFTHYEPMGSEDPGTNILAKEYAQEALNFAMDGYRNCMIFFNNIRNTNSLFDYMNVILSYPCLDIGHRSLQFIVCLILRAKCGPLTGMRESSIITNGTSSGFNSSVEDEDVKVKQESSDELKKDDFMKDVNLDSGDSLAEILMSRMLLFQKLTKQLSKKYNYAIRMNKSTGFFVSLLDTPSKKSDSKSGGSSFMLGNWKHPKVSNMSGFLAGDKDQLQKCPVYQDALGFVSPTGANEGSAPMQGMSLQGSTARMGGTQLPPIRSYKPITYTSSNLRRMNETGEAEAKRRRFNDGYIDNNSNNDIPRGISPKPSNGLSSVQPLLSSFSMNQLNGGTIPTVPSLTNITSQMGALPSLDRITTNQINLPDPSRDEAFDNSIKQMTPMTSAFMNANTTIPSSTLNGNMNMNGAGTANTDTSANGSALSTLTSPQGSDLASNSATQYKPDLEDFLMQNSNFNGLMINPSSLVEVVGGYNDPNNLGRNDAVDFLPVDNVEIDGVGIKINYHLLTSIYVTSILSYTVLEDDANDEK
row,Sequence,PBM E-score
1,AATATCTA,-0.199
2,GGAACCTA,0.158
3,CGCCTACG,0.118
4,ACTGAATG,0.0606
5,TGACCAAA,-0.181
6,ATTAGGCG,0.166
7,AATAATCT,0.0101
8,ATGAACGA,-0.167
9,CACCTCAA,-0.134
10,ATGACATC,-0.0132
11,CCCTAGGG,-0.324
12,TTCAGGAA,-0.219
13,CTTGCCAA,-0.194
14,AAAGACCA,-0.182
15,CACATGCC,-0.0842
16,ACTCGCAT,-0.0225
17,CTTGGGGA,-0.107
18,CCGTAAGG,0.195
19,GTTAGATA,-0.0416
20,TGACAACA,-0.188
21,ACTAGGCC,0.0926
22,AGTAAAGG,0.0483
23,AGAGGTGG,-0.0944
24,CACGCGAG,0.0375
25,GAGCAGAC,-0.143

row,Sequence,PBM E-score
1,CACGGTCG,0.0563
2,TCTAGGCA,-0.17
3,CTGTCTAA,0.00177
4,TCCAAGCA,-0.169
5,GATTCCGC,0.268
6,CGGTACCG,0.343
7,ACGGTGGG,-0.0129
8,ATCGTAAC,0.158
9,GGCTTTTA,0.216
10,GCTGGTCC,0.0163
11,AATATGTC,-0.141
12,CGCGAGGA,0.0251
13,ACTTGTAA,-0.227
14,AAATAAGC,-0.036
15,ATTTAGTC,0.00353
16,GCCAACTA,-0.262
17,CGAAAAGC,0.0565
18,TGTCGTAA,-0.241
19,CCATTCGC,-0.0998
20,CCCGTGTC,0.164
21,CAGAGGAA,-0.214
22,TGGATACA,-0.288
23,AAAGTAAG,-0.163
24,CATCGGGC,0.24
25,ACGACTAA,-0.152

row,Sequence,PBM E-score
1,GCCAGCAA,-0.158
2,GGCGGACC,0.35
3,CCCGTTGA,-0.00757
4,CTAAACAC,-0.0466
5,AGGGATCG,-0.0685
6,CACCTCAG,-0.254
7,CGTGAGGC,-0.0632
8,CAAGGCCA,-0.0751
9,GGCGGGAA,0.0695
10,CTCATCCC,-0.157
11,ACGACTAT,-0.101
12,ACCGCCCT,-0.13
13,CAGATTGC,-0.175
14,CATCGATA,0.142
15,CGCCGACG,0.274
16,ACACCCCC,-0.0596
17,GTGGGAAC,-0.098
18,GGCGCCAC,0.159
19,CAGCTTCC,0.00993
20,AGAGCGCC,0.0628
21,AGTACCGA,0.291
22,GCCACAAC,-0.0952
23,CCACAGGC,-0.261
24,AGCCATCG,0.0308
25,GACTGATC,-0.19

row,Sequence,PBM E-score
1,AAGCCCGC,0.337
2,ACGAGCCA,-0.276
3,GATTGACC,0.143
4,GATTGACA,-0.179
5,AGGGTCTG,-0.31
6,AGTCTAAT,-0.133
7,CAGACCAG,0.0149
8,CCTGTGCA,-0.236
9,AGACATTC,-0.168
10,CCAAAGAA,-0.194
11,CAGCACTG,-0.165
12,GGCAAGGA,-0.0722
13,CCGGTAAA,0.456
14,AAGAGAGC,-0.0699
15,ATAGATAA,0.114
16,ACTCGACC,-0.044
17,CACTGTAG,-0.148
18,AGACGGCA,-0.0262
19,ATGGCGCC,0.0554
20,AATCGCGA,0.0866
21,TATGTCAA,-0.134
22,CCGATCCG,0.438
23,AAGTCGCA,-0.093
24,CCATAAGC,-0.015
25,CCTATCGC,0.194

row,Sequence,PBM E-score
1,ATACCTCG,0.0008
2,AAGCGGGC,0.0717
3,CCACGCAC,-0.11
4,ATATGGTC,-0.0714
5,ATCTGCCA,-0.0572
6,CTCGCTTA,0.116
7,AAATTGTT,-0.0229
8,ACAGCTGC,-0.151
9,ATGATTGA,-0.127
10,ATAACCTG,-0.108
11,CTGACCTA,-0.124
12,GGAGGGCC,0.0155
13,ACCACACA,-0.157
14,CCTAACGC,0.204
15,CATCAGTA,-0.187
16,AGCTGAAT,-0.238
17,CGTTCCTC,0.0909
18,AACCGAGG,0.148
19,CACTGTTA,-0.128
20,ACCGCTGC,-0.114
21,CATTGTAA,-0.0956
22,CATCATGA,-0.191
23,ACGACTCC,-0.191
24,AACCGCAG,-0.0736
25,ATAACTTA,-0.214

row,Sequence,PBM E-score
1,CCCCGCCG,0.259
2,GAGTTGTA,-0.0764
3,CATTAACA,-0.0706
4,AGTGGAAT,-0.00393
5,CGACTGAG,-0.208
6,CGCTGATA,0.0707
7,ACGGCTGG,0.00715
8,AGGTACGG,0.0524
9,ACAGGCGG,0.0805
10,CAGAGTAG,-0.28
11,ATGACATG,-0.192
12,ACGACAAG,-0.153
13,GACAGTCC,-0.0284
14,CTTCGAGA,-0.234
15,GTCAAAAA,-0.186
16,AAAGTGAC,-0.0776
17,CCTAGTCA,-0.288
18,TAAATATA,0.0175
19,ACTGGCCT,-0.0517
20,GCTTGGCA,-0.322
21,CAGTTCAC,-0.0851
22,AGAGGCAC,-0.1
23,CACACAAA,-0.251
24,GTGCGCGA,0.0178
25,ATTAACAG,-0.171

row,Sequence,PBM E-score
1,ATATTGTG,-0.0831
2,GTCAGCTA,-0.17
3,GTATGGCA,-0.172
4,ATGCCACG,-0.0192
5,CAGTATCA,-0.219
6,CACTTGTA,-0.237
7,TAACTGAA,-0.186
8,ACTTTTCG,0.199
9,TTAGAAAA,-0.0981
10,CTGAGCTA,-0.267
11,GCAGTGCA,-0.136
12,ACCACGGA,0.333
13,TGCGAGAA,-0.143
14,CCTACTAA,-0.0635
15,ACTTATCG,0.415
16,CCGGTTCC,0.349
17,CGAGCCCG,0.149
18,CCGTGGAA,0.245
19,CCTGGCAG,-0.239
20,CCCTAACC,-0.0144
21,TATGCTGA,-0.16
22,ACTGCAAA,-0.157
23,ACTCCTAC,-0.215
24,AGACTCGG,0.217
25,CTGCCCAC,-0.237

row,Sequence,PBM E-score
1,GCATAAGC,-0.169
2,CAACATTA,-0.195
3,ATACCAAG,-0.0833
4,ACGTCGAC,-0.103
5,ACCACTCT,-0.133
6,CATGTGTC,-0.179
7,CCCAGAGA,-0.226
8,AATATACC,0.0775
9,ACCATACC,-0.0283
10,ATGAACCA,-0.0935
11,ATCAGCAT,-0.0371
12,AAGTGGGC,-0.0823
13,ACGAGGAG,-0.273
14,AAAAGTTT,-0.0714
15,CGACCTCA,-0.169
16,CCCTACGA,-0.304
17,CTCTGGCA,-0.217
18,CTTTTACC,0.0063
19,TTCTTCAA,-0.155
20,AATCAGCC,-0.134
21,TAAGATAA,-0.0913
22,CTGTTGTC,0.103
23,ATCTTGAA,-0.139
24,AGGGTACA,-0.185
25,ACAGGGTC,0.0422

row,Sequence,PBM E-score
1,CGTCTTAA,-0.122
2,GTTTATGA,-0.0644
3,CGATGTGA,-0.0762
4,ATACCTGG,0.0136
5,CAGTGAGA,-0.107
6,TCCAAACA,-0.283
7,GACAAGAC,0.11
8,CGCTTTTC,0.0796
9,CGAAGACG,0.0145
10,AACGTTGT,-0.162
11,AGTCGGTC,0.279
12,AATGTTAC,-0.0284
13,CGGTCTTA,0.404
14,AGCTTCTC,-0.166
15,CACATACC,-0.00781
16,GGTGGCGA,-0.037
17,GAACTTAC,-0.124
18,GTCACGAA,-0.00509
19,CGGACAAA,0.405
